These results are taken from the supplement of paper PMC3334620.

Over roughly 33,000 sequences, “E-score (-0.5 to 0.5)” has its median near -0.056; the highest 2% begin near 0.38. The list shows a part of the results.

In the experiment the target is Stb4 (UniProt P50104). The experiment is described as follows: PBM E-score (8-mer binding enrichment) (E-score (-0.5 to 0.5)); higher = stronger / more preferred TF binding; most listed sequences are background and not binding sites. Particulars: protein concentration: 200 nM; construct: GST-DNA-binding domain. The method in brief:
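Each ungapped eight-base word and its reverse complement, pooled, received an E-score from the Universal PBM Analysis Suite. Underlying scans, normalised with masliner, recorded fluorescent anti-GST bound to GST-tagged yeast transcription factors. These were applied at about 100-200 nM to universal all-10-mer Agilent arrays double-stranded by primer extension.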
On to CAATTGAG, for which the “PBM E-score” value amounted to 0.0305. In the case of CTGCTTGC, the “PBM E-score” value was found to be 0.0358. As to GCCTAGGA, the “PBM E-score” value was -0.259. For the sequence ACACCCCG, the “PBM E-score” value came to 0.147. Regarding ATGGGCAG, the “PBM E-score” value was -0.152.

As for CCCGAAGA, the “PBM E-score” value came to 0.403. In the case of CCAAACGA, the “PBM E-score” value was -0.122. TACGGCCA: the “PBM E-score” value is -0.0705. GCGAGAAC: the “PBM E-score” value is -0.021. As for AGTCGACC, the “PBM E-score” value was 0.0176. Turning to GCATCCGA, the “PBM E-score” value was determined as 0.466. In the case of ACGCTCGA, the “PBM E-score” value was -0.198. For the sequence GCTGCGCA, the “PBM E-score” value is -0.0627. To AGTTGTAG belongs -0.148. ACAAGGGA: the “PBM E-score” value is -0.171. For the sequence GCTAAGTA, the “PBM E-score” value is -0.148.

For the sequence CCTTTGCA, the “PBM E-score” value is -0.208.

In the case of AGCGGCCT, the “PBM E-score” value was -0.0959. As to AGCTGACA, the “PBM E-score” value worked out at 0.0342. For CCGTATTC, the “PBM E-score” value worked out at 0.145.

Turning to ACCGCACA, the “PBM E-score” value was -0.0505. On to AAAGGCTA, for which the “PBM E-score” value was -0.279.

With ACCTATTC, the “PBM E-score” value came to 0.0631.

Take AAATCGGA: the “PBM E-score” value came to 0.399. As to GTCATTGA, the “PBM E-score” value was -0.0705. Next, GATTCTAA: -0.0969; AAGTCCGG: 0.249. To AGTAAGAG belongs -0.341; to TAAACTGA, -0.0433; to CACACCGC, 0.0128. On to AACATAGG, for which the “PBM E-score” value is -0.087. Take GCGTCACA: the “PBM E-score” value was -0.168.

As for ACGTCGGC, the “PBM E-score” value worked out at 0.307.

As to CCTCCAAA, the “PBM E-score” value was -0.211. Next, CAGTAACC: -0.0265.

As for ATTCCCCA, the “PBM E-score” value is -0.258. Take GGTTATCA: the “PBM E-score” value is -0.00023. As for CTTCTGGC, the “PBM E-score” value was -0.255. To AACTTTGT belongs 0.0155; to CACGGGCA, 0.00697; to GTGGTGAA, 0.0732. Regarding TGCAACCA, the “PBM E-score” value was -0.28. On to CCTGGACA, for which the “PBM E-score” value is -0.099.

Consider CTGCACCA, for which the “PBM E-score” value is -0.0962. On to CCAGGCAA, for which the “PBM E-score” value is -0.106.

CCTAGTAC: the “PBM E-score” value is -0.116. With AGCGAGAC, the “PBM E-score” value was -0.0354.

With CTTTTGTA, the “PBM E-score” value was -0.0656. ACGACGGG: the “PBM E-score” value worked out at 0.063. With CTCATGCC, the “PBM E-score” value stood at 0.0136. Take AGAGGTCA: the “PBM E-score” value is -0.114. CGCCGTGA: the “PBM E-score” value was -0.00728. Turning to CACGGGGC, the “PBM E-score” value is -0.0507.

ATATAATA: the “PBM E-score” value stood at 0.0538. CACGCGTC: the “PBM E-score” value was 0.0968. As to GGGTAACA, the “PBM E-score” value turned out to be 0.106. To CGCCATGC belongs -0.00401. Turning to ATCACTTC, the “PBM E-score” value was -0.00153. As to CCCTTAAC, the “PBM E-score” value was -0.182. On to AGACCCTC, for which the “PBM E-score” value was -0.0823. Next, CGCCTTAA: 0.0429. Consider CGTGGAAG, for which the “PBM E-score” value was determined as 0.0899. As to GGGGGACA, the “PBM E-score” value was -0.00324. In the case of GGACCTAA, the “PBM E-score” value amounted to 0.138. For the sequence CATTCACG, the “PBM E-score” value was -0.0575. Turning to GGTGTGGA, the “PBM E-score” value was -0.00858. As for GCTCTGCC, the “PBM E-score” value was -0.0979.

As for CCCTAGCA, the “PBM E-score” value is -0.245. As to GGTTTGCA, the “PBM E-score” value was -0.0305. On to AGCTTGGG, for which the “PBM E-score” value came to 0.0591. CGACGAAG: the “PBM E-score” value is 0.123.

As for GTGTAGAA, the “PBM E-score” value was -0.201. On to CTATAGAC, for which the “PBM E-score” value was -0.172. ACTACCTA: the “PBM E-score” value was -0.0673. On to GAAATGAA, for which the “PBM E-score” value came out at 0.0812.

With CAGAATGA, the “PBM E-score” value was -0.0945. For the sequence ATCCTTGC, the “PBM E-score” value was -0.134. For AACCATTG, the “PBM E-score” value is -0.152. As to CCAAAGCA, the “PBM E-score” value is -0.15. As for AATTACCC, the “PBM E-score” value came to 0.269. On to CCAGAACC, for which the “PBM E-score” value is -0.13. Regarding TGGCTCAA, the “PBM E-score” value is -0.214. Next, AATCTGAT: 0.026; CCTCTTAC: -0.274; CGTTCAAA: 0.093. For the sequence CATTGCGA, the “PBM E-score” value is -0.0487.

In the case of AGTTCCTG, the “PBM E-score” value is -0.14. In the case of CATTGAGA, the “PBM E-score” value was -0.147. For GGATTCCC, the “PBM E-score” value was determined as 0.102.

Turning to GGGTTAAC, the “PBM E-score” value was determined as 0.211. Regarding CAGCGTCA, the “PBM E-score” value is -0.229. Turning to CCAGGTCA, the “PBM E-score” value was -0.289. As to AGCAAACA, the “PBM E-score” value is -0.0803. For CACACAGG, the “PBM E-score” value is -0.241. To AAATCGTA belongs -0.152. For GTGTGTGA, the “PBM E-score” value was -0.0455. To ATGGCAAC belongs 0.0359; to GAATGGTA, -0.0914; to GTTCTTCA, -0.0896. Consider ACCAGTTA, for which the “PBM E-score” value was -0.0978. With CGCTGTCA, the “PBM E-score” value is -0.164. Next, CCGTTTAA: 0.084; AGTGTCTC: -0.0391; AATCCTCG: 0.0613. Consider GATGTTGC, for which the “PBM E-score” value was 0.0623. In the case of ACAGACTC, the “PBM E-score” value was -0.115. Turning to ATATGGCA, the “PBM E-score” value is -0.173.

With CACCCACG, the “PBM E-score” value was determined as 0.0694.

As to GCTGCCAA, the “PBM E-score” value is -0.0827. For the sequence CAGGGTCG, the “PBM E-score” value is 0.149.
